This is an account of results in PMC5342195.

Protein sequences, listed by entry. Tags and fused reporters are not part of them. Lines headed by an entry give the natural chain unless they say otherwise; changes in a name come on top.
UniProt Q9UJU2: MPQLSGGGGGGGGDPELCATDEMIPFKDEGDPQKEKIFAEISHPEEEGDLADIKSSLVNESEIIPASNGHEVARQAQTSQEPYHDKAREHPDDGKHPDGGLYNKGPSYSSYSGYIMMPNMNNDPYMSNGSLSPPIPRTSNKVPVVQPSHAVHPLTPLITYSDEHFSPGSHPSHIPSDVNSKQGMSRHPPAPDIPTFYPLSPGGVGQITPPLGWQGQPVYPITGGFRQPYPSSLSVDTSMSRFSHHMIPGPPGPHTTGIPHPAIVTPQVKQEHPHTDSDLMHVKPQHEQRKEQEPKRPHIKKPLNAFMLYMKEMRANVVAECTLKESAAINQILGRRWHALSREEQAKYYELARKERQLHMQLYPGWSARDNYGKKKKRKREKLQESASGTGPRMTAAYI
UniProt P35222: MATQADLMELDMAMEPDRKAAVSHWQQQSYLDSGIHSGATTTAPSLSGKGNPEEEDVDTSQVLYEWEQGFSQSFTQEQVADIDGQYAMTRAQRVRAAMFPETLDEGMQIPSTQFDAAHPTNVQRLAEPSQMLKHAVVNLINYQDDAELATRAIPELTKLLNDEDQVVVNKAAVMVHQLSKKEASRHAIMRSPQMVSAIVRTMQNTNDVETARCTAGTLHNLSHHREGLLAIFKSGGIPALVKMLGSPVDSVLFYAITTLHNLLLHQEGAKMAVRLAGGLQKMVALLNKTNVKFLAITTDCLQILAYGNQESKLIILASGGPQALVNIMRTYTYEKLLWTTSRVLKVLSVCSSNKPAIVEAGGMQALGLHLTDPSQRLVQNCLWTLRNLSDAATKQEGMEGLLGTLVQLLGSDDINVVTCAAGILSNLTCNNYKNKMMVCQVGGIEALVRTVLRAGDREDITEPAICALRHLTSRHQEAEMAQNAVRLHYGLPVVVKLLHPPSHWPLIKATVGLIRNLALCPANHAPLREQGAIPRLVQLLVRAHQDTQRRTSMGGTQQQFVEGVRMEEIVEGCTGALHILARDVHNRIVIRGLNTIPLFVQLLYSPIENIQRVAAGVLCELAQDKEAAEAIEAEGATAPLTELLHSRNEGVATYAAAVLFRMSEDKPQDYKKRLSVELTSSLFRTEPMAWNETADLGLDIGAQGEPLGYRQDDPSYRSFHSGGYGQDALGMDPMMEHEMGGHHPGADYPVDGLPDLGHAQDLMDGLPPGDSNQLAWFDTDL

No constants are given. Whether binding was seen depends on the method and setting. In cells and extracts the contact can be indirect. Some entries that bind do so weakly or less than the wild type.

This assay has as its target recombinant human LEF1-GST protein (human) (UniProt Q9UJU2). The assay is described as follows: pull-down; LEF1-GST on glutathione-Sepharose 4B beads incubated 3 h at 4°C with total cell lysate in RIPA (500 μg of total proteins) of Lu1205 cells transfected with HA-tagged β-catenin-NLS WT or mutants; washed five times; immunoblot; only the target purified.
As to “HA-tagged β-catenin-NLS WT (from UniProt P35222 1-781)”, the binding result is reported as “binds”.
For “HA-tagged β-catenin-NLS F660S (from UniProt P35222 1-781)” the value was “binds”; for “HA-tagged β-catenin-NLS K435E (from UniProt P35222 1-781)”, “no binding”.
Take “HA-tagged β-catenin-NLS F660A (from UniProt P35222 1-781)”: the binding result is on record as “binds”.
For the substance “HA-tagged β-catenin-NLS K312E (from UniProt P35222 1-781)”, the binding entry is listed as “no binding”.
